Assay results reported in PubChem BioAssay AID360 (National Center for Advancing Translational Sciences (NCATS), 2006).
In all, about 48,000 compounds went through this assay and about 550 (1.1%) were called active. Another 4% or so got no clear call; they are omitted. No stated cut-off is given here; in the data, active means potency below about 15 µM; inconclusive means mostly about 16 µM to 33 µM; inactive means weaker than that. This is one part of the list.

The compounds below were run against Lysosomal acid glucosylceramidase (Homo sapiens) (UniProt P04062) (assay: Glucocerebrosidase). Settings: purified enzyme, resorufin glucoside fluorescence (screen aimed at inhibitors), 20 min.
Sequence of UniProt P04062 (P04062 whole entry, looked up): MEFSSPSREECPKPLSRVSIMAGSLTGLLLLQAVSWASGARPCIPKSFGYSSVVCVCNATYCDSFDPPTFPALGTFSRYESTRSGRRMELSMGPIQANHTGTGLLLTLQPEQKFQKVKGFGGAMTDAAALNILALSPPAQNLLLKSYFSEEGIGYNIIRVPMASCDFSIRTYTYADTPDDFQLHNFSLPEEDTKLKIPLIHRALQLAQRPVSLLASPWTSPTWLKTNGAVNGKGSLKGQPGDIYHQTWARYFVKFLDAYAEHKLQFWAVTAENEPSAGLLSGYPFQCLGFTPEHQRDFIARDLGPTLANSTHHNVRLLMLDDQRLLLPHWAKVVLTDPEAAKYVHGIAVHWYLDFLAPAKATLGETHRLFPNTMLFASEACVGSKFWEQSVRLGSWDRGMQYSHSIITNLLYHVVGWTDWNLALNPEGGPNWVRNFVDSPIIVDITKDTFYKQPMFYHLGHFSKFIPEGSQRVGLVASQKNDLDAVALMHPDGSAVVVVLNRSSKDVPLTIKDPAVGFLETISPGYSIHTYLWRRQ
How it was run: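 Compounds titrated against 0.2 nM normal enzyme, 30 uM resorufin beta-D-glucopyranoside substrate, citrate/phosphate buffer with taurocholate and tween-20, pH 5.9. Reaction ran 20 min at room temperature; fluorescence (Ex 548/Em 600) gave AC50.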
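Further: the screen sought inhibitors.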
Potency means the concentration at half of the fitted maximal effect.

SMILES | Potency
Cc1nc2scc(-c3ccccc3)c2c(=O)n1/N=C/c1ccco1 | inactive: > 76.9 µM
Cc1noc(C)c1C(=O)OCC(=O)NCCc1ccc(Cl)cc1 | inactive: > 76.9 µM
O=C(Nc1ccccc1C(F)(F)F)N1CCCCCC1 | inactive: > 76.9 µM
COc1cccc(NC(=O)Cn2nnc(-c3ccccc3N)n2)c1 | inactive: > 76.9 µM
CC(C)C(NC(=O)OCc1ccccc1)C(=O)OCC(=O)N1CCCCC1 (configuration not stated) | inactive: > 76.9 µM
CC(C)COC(=O)C1[C@H]2C(=O)N(Cc3cccs3)C[C@]23C=C[C@H]1O3 (some centres not stated) | inactive: > 76.9 µM
O=C(CSc1nc2scc(-c3ccco3)c2c(=O)n1-c1ccccc1)NCC1CCCO1 (configuration not stated) | inactive: > 76.9 µM
CC(NC(=O)c1cc2ccccc2o1)c1cccs1 (configuration not stated) | inactive: > 76.9 µM
O=C(Nc1nc2ccccc2[nH]1)c1ccc(F)cc1 | inactive: > 76.9 µM
CCOC(=O)CC(=O)CSc1nc2ccc(C)cc2cc1C#N | active: 12.7 µM
Cc1c(C(=O)N2CCN(C)CC2)oc2c1C(=O)CC(C)(C)C2 | inactive: > 76.9 µM
CCOC(=O)c1cnc(-n2nc(C)cc2C)nc1N(CC)CC | inactive: > 76.9 µM
O=S(=O)(c1cccs1)N1CN(CC2CCCO2)c2nc3ccccc3nc21 (configuration not stated) | inactive: > 76.9 µM
OC(CNCC1CCCO1)Cn1c2ccccc2c2ccccc21 (configuration not stated) | inactive: > 76.9 µM
C=C(C)c1cccc(C(C)(C)NC(=O)N2CCCC(C(N)=O)C2)c1 (configuration not stated) | inactive: > 76.9 µM
Cn1cccc1C(=O)OCC(=O)Nc1ccc2c(c1)CCC2 | inactive: > 76.9 µM
O=C(NC1CCN(C(=O)Nc2ccccc2)CC1)C1CCCCC1 | inactive: > 76.9 µM
Cc1ccc2c(CC(=O)Nc3c(C)n(C)n(-c4ccccc4)c3=O)coc2c1 | inactive: > 76.9 µM
Cn1nnnc1SCc1ccccc1F | inactive: > 76.9 µM
CC(C)c1cc(C(N)=O)c(NC(=O)C2CCC2)s1 | inactive: > 76.9 µM
CS(=O)(=O)N1CCC(C(=O)Nc2ccc(OCc3ccccc3)cc2)CC1 | inactive: > 76.9 µM
O=C(Nc1ccc(-c2nnc(-c3ccccc3)o2)cc1)c1ccc(Br)o1 | inactive: > 76.9 µM
CC(=O)Nc1sc2c(c1C#N)CC(C)(C)NC2(C)C | inactive: > 76.9 µM

SMILES | Potency
COc1cc(OC)c(S(=O)(=O)NCc2ccco2)cc1S(=O)(=O)NCc1ccco1 | inactive: > 76.9 µM
O=c1oc2c(CN3CCCCCC3)c(O)ccc2cc1-c1nc2ccccc2[nH]1 | inactive: > 76.9 µM
O=C(Nc1c(-c2ccccc2)nc2ccccn12)c1ccco1 | inactive: > 76.9 µM
CC(=O)N1CN(C2CCS(=O)(=O)C2)Cc2c1sc1c2CCCC1 (configuration not stated) | inactive: > 76.9 µM
O=S(=O)(c1cnc[nH]1)N1CCc2ccccc21 | inactive: > 76.9 µM
C/C=C/c1ccc(OCCN2C(=O)NC(C)(C)C2=O)c(OC)c1 | inactive: > 76.9 µM
CCOC(=O)c1oc2ccccc2c1NC(=O)c1cc(OC)cc(OC)c1 | inactive: > 76.9 µM
COC(=O)C1=C(C(=O)c2ccccc2)C(c2ccc(O)c(OC)c2)n2nnnc2N1 (configuration not stated) | inactive
N#Cc1nc(-c2ccco2)oc1NCCc1ccccc1 | inactive: > 76.9 µM
c1cncc(C2Nc3ccccc3-c3nc4ccccc4n32)c1 (configuration not stated) | inactive: > 76.9 µM
CCOC(=O)c1cc2sccc2n1CC(=O)Nc1ccc2c(c1)OCCO2 | inactive: > 76.9 µM
CCN(CC)C(=O)C(C)N(C#N)c1nc(SC)nc(N(C)C)n1 (configuration not stated) | inactive: > 76.9 µM
Cc1cc(S(=O)(=O)NCCN(C)C)c(C)s1 | inactive: > 76.9 µM
CC(C)C(=O)N(Cc1cc2ccccc2[nH]c1=O)C(C)C | inactive: > 76.9 µM
O=S(=O)(c1ccccc1)c1nc(-c2ccco2)oc1NCCCn1ccnc1 | inactive: > 76.9 µM
CCOC(=O)N1CCN(C(=O)CN(c2ccc(C)cc2)S(=O)(=O)c2c(C)noc2C)CC1 | inactive: > 76.9 µM
O=C(N1CCOCC1)N1c2ccccc2CC(N2CCOCC2)c2ccccc21 (configuration not stated) | inactive: > 76.9 µM
O=C(CN(C(=O)CCC(=O)Nc1nccs1)c1ccccc1F)NCC1CCCO1 (configuration not stated) | inactive: > 76.9 µM
COc1ccc(C(=O)Nc2nc(C)c(C(=O)N(C)C)s2)cc1OC | inactive: > 76.9 µM
Cc1cccc2nc(=S)n(C(=O)c3ccco3)n12 | inactive: > 76.9 µM
Cc1cc(NC(=O)CSc2nc3c(c(=O)n2-c2ccc(Br)cc2)SCC3)no1 | inactive: > 76.9 µM
CCC(=O)Nc1cccc(NC(=O)c2ccc3c(c2)OCCO3)c1 | inactive: > 76.9 µM
CCOc1ccc2nc3c(cc2c1)CN(CCCO)C(=NCCOC)S3 | inactive: > 76.9 µM

SMILES | Potency
COC(=O)c1ccc(COC(=O)c2c(C)nn(Cc3ccccc3Cl)c2Cl)o1 | inactive: > 76.9 µM
O=C(C1CC1)N1CCc2cc(S(=O)(=O)NCCC3=CCCCC3)ccc21 | inactive: > 76.9 µM
CCCOc1ccc(C(=O)N2CCN(c3ccc(N)cc3Cl)CC2)cc1 | inactive: > 76.9 µM
CCc1ccc2c(c1)c1nc(C)sc1n2CC | inactive: > 76.9 µM
C=CCN(CC=C)C(=O)Nc1cc(Cl)ccc1OC | inactive: > 76.9 µM
CC(C)c1nc2oc3c(N4CCN(C)CC4)ncnc3c2c2c1CCC2 | active: 8.51 µM
COc1ccc(CCNC(=O)C2CCN(C(=O)N(C)C)CC2)cc1OC | inactive: > 76.9 µM
Cc1ccccc1NC(=O)CSCCO | inactive: > 76.9 µM
O=C(c1cc(-c2cccs2)on1)N1CCN(c2ccccc2)CC1 | inactive: > 76.9 µM
C=CCn1c(SCc2nnc(-c3ccccc3)o2)nnc1C(O)c1ccccc1 (configuration not stated) | inactive: > 76.9 µM
Cc1cc(C(=O)NC(C)c2ccncc2)cs1 (configuration not stated) | inactive: > 76.9 µM
CCOC(=O)c1cc2occc2n1CC(=O)N1CCN(C(=O)c2ccco2)CC1 | inactive: > 76.9 µM
CCn1c(SCc2nnc(-c3ccccc3)o2)nc2c1c(=O)n(C)c(=O)n2C | inactive: > 76.9 µM
COc1ccc(OC)c(NC(=O)C2CCN(S(C)(=O)=O)CC2)c1 | inactive: > 76.9 µM
COc1ccc(NC(=O)COC(=O)c2cnccn2)cc1Cl | inactive: > 76.9 µM
Cc1ccc(-n2nnc3c(=O)oc4ccccc4c32)cc1 | inactive: > 76.9 µM
N#Cc1c(C(F)(F)F)cc(-c2ccco2)nc1SCc1ccccn1 | inactive: > 76.9 µM
COc1ccc(S(=O)(=O)N2CC(O)CC2C(=O)OCC(=O)Nc2ccc(Cl)cn2)cc1 (configuration not stated) | inactive: > 76.9 µM
Cc1cc(C(=O)NC(C)C)on1 | inactive: > 76.9 µM
Cn1c(=O)c(=O)n(C)c2cc(S(=O)(=O)N3CCc4ccccc43)ccc21 | inactive: > 76.9 µM
COc1ccc(-n2c(SCc3ccc(C#N)cc3)nnc2-c2ccccn2)cc1 | inactive: > 76.9 µM
CCOc1ccccc1NS(=O)(=O)c1c(C)noc1C | inactive: > 76.9 µM
C=C(C)Cn1c(N2CCC(Cc3ccccc3)CC2)nc2c1c(=O)[nH]c(=O)n2C | inactive: > 76.9 µM

SMILES | Potency
O=C(Nc1cccnc1N1CCOCC1)c1cc2ccccc2oc1=O | inactive: > 76.9 µM
O=C(c1ccccc1F)N1CCN(Cc2cccc(Cl)c2)CC1 | inactive: > 76.9 µM
Cn1c(C(=O)Nc2ccc3c(c2)OCO3)cc2sccc21 | inactive: > 76.9 µM
CC(=O)c1cccc(-n2nnnc2SCC(=O)N2CCCC2)c1 | inactive: > 76.9 µM
CCOc1ccc(OCC)c(NC(=O)CN(C)S(=O)(=O)c2cccc3nsnc23)c1 | inactive: > 76.9 µM
COc1ccc2ccccc2c1/C=N/O | inactive: > 76.9 µM
CCOC(=O)c1c(C)oc2ccc(OCC(N)=O)cc12 | inactive: > 76.9 µM
COc1cc(C(=O)OCC(=O)Nc2c(F)c(F)c(F)c(F)c2F)cc(OC)c1OC | inactive: > 76.9 µM
Cn1c(C(=O)O)c(CC(=O)Nc2ccccc2F)c2ccccc21 | inactive: > 76.9 µM
C/C(N)=C(/C#N)C(=O)CSc1nnnn1-c1ccc(C)cc1C | inactive: > 76.9 µM
Cc1cc(C(F)F)n2ncc(C(=O)NC3CCCCCC3)c2n1 | inactive: > 76.9 µM
Nc1nc2nccc(-c3ccc(Cl)cc3)n2n1 | inactive: > 76.9 µM
COCCN(CCOC)S(=O)(=O)c1ccc(OC)cc1 | inactive: > 76.9 µM
CC(=O)c1cccc(NC(=O)N2CCCC2C(=O)Nc2c(C)cccc2C)c1 (configuration not stated) | inactive: > 76.9 µM
O=c1cc(NCc2ccco2)[nH]c(=O)n1-c1ccc(Br)cc1 | inactive: > 76.9 µM
O=C(NCCCN1CCOCC1)c1cc(-c2ccc(Br)cc2)on1 | inactive: > 76.9 µM
COc1c(F)c(F)c(C(=O)Nc2ccccc2N2CCN(C(=O)C(C)C)CC2)c(F)c1F | inactive: > 76.9 µM
N#CCCn1cc(C(CC(=O)c2ccccc2)C(=O)O)c2ccccc21 (configuration not stated) | inactive: > 76.9 µM
COC(=O)c1ccc(OC)c(CSc2nnc(COc3ccc(Cl)cc3)o2)c1 | inactive: > 76.9 µM
Cc1occc1-c1nnc(SCC(=O)Nc2ccccc2)n1C(C)c1ccccc1 (configuration not stated) | inactive: > 76.9 µM
CCc1c(C)nc2ncnn2c1N1CCCC(C(=O)NCc2ccc3c(c2)OCO3)C1 (configuration not stated) | inactive: > 76.9 µM
C[C@H](NC(=O)Nc1ccccc1F)C(=O)O | inactive: > 76.9 µM
O=S(=O)(Cc1ccccc1)Nc1ccc(S(=O)(=O)NCC2CCCO2)cc1 (configuration not stated) | inactive: > 76.9 µM
